Measured values as given in ChEMBL document CHEMBL1201862, “PubChem BioAssay data set” (2004).
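Values below derive from 48-hour exposures of cells grown in 96-well plates, with endpoints linearly interpolated between the two concentrations bracketing the appropriate inhibition level. The concentration for 50% growth inhibition is given as GI50.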 Activity calls are given as the source filed them. Cut-off read from the data, not from the text of the source: active = GI50 up to about 1.1 µM and inactive = higher.

Tested on: NCI-H322M
Assay: NCI tumour cell line growth inhibition, 48 h

Compound | GI50
COC(=O)[C@@H]1CN(C(=O)c2ccccc2)C(=O)N1 | inactive: > 100 µM
C/C(=N\[N+](C)(C)C)C(c1ccccc1)C1(c2ccccc2)C(c2ccccc2)=C1c1ccccc1 (configuration not stated) | inactive: > 100 µM
NC1(P(=O)(O)O)CCCCC1 | inactive: > 100 µM
O=c1c2c3c(sc2nc2n1N=CN(c1ccccc1)C2)CCCC3 | inactive: > 100 µM
O=c1c(NO)c([N+](=O)[O-])cnn1-c1ccccc1 | inactive: 6.41 µM
COc1cc(OC)c(-c2cc(=O)c3c(OC)c(OC)c(OC)c(OC)c3o2)cc1OC | inactive: > 100 µM
NCC(Cl)C(O)c1c[nH]c(N)n1 (configuration not stated) | inactive: 1.46 µM
CC1(C)CC[C@]2(C(=O)O)CC[C@]3(C)C(=CC[C@@H]4[C@@]5(C)C[C@H](O)[C@H](O)[C@@](C)(CO)C5=CC[C@]43C)[C@@H]2C1 | inactive: 49.7 µM
COc1cc([N+](=O)[O-])c(S(=O)(=O)O)cc1-n1nc(C(=O)Nc2ccccc2)n[n+]1-c1cc(S(=O)(=O)[O-])c([N+](=O)[O-])cc1OC | inactive: > 100 µM
CCCCCCCCCCCCCCCCOCC(COP(=O)([O-])OCC[N+](C)(C)C)OCCCCCCCCCCCCCCCC (configuration not stated) | inactive: > 100 µM
O=C(Nc1ccc([N+](=O)[O-])cc1)Nn1cnnc1 | inactive: > 100 µM
CC1CCC2CC1NC(=O)CCOCCC(=O)NC2(C)C (configuration not stated) | inactive: > 100 µM
CC1OC(CO)(n2cnc3c(N)ncnc32)C(O)C1O (configuration not stated) | inactive: > 100 µM
N#Cc1nc(CSCc2ccccc2)oc1N | inactive: > 100 µM
COC(=O)C1=C(O)c2cc(OC)c(OC)cc2C(c2ccc(OC)c(OC)c2)C1 (configuration not stated) | inactive: > 100 µM
CCOC(=O)C(=O)NCCCN1CCOCC1 | inactive: > 100 µM
Cc1ccc(O)c(C2=CC(c3cccc(Cl)c3)SC(=N)N2)c1 (configuration not stated) | inactive: 36.7 µM
COc1ccc(/C=C2\C(=O)N(C)C(=O)c3cc(OC)c(OC)cc32)cc1OC | inactive: 59.3 µM
COc1cc(C2OC[C@@H]3C(=O)OC[C@H]23)cc(O)c1OC (some centres not stated) | inactive: > 100 µM
CCCCCCCCCCCCCC(=O)OCC1OC(n2cc(F)c(=O)[nH]c2=O)C(NC(=O)OCc2ccccc2)C(OC(=O)CCCCCCCCCCCCC)C1O (configuration not stated) | inactive: > 100 µM
COc1ccc(C)cc1N1C(=O)C2ON(Cc3ccc(CC(N)=O)cc3)C(c3c4ccccc4c(Cl)c4ccccc34)C2C1=O (configuration not stated) | inactive: 41.2 µM
Cc1ccc(NC(=O)CC2SC(=N)NC2=O)cc1C (configuration not stated) | inactive: > 100 µM

Compound | GI50
[O-][N+]1(CC[N+]2([O-])CCCCC2)CCCCC1 | inactive: > 100 µM
CCC[C@H](O)[C@@H](CNc1cc(NC(C)=O)nc(NC(C)=O)n1)N(Cc1ccccc1)Cc1ccccc1 | inactive: 21.6 µM
COc1ccc(C2CC(=O)CC(c3ccc(OC)cc3)C23C(=O)NC(=S)NC3=O)cc1 (configuration not stated) | inactive: > 100 µM
COc1cccc2c1C(=O)C1=C(C2=O)C(O)CC(C)(C)O1 (configuration not stated) | inactive: 80 µM
O=C(O)CN(c1ccccc1)S(=O)(=O)c1ccccc1[N+](=O)[O-] | inactive: > 100 µM
CN1CCc2c([nH]c3ccccc23)C1 | inactive: > 100 µM
OCC1CCCCN1Cc1nc2cc(Cl)ccc2[nH]1 (configuration not stated) | inactive: > 100 µM
O=C1C=CC(=O)c2cc(Sc3ccccc3)c(=O)ccc21 | inactive: 15.3 µM
COC(=O)C(NC(=O)c1ccccc1)C(c1c(O)cc(O)cc1O)P(=O)(OC)OC (configuration not stated) | inactive: > 100 µM
O=C(CCN1CCCCC1)C(=Cc1ccccc1)C(=O)CCN1CCCCC1 | inactive: > 100 µM
NCCCCNOCCCN | inactive: > 100 µM
CCOC(=O)c1ccc(N2C(=O)/C(=C\OC)c3ccccc3C2=O)cc1 | inactive: 58.7 µM
COC1C(N)C(OC2C(Oc3cccc4c(O)c5c(=O)oc6ccc(C)c7c(=O)oc(c34)c5c67)OC(C)C(O)C2(C)O)OC(C)C1O (configuration not stated) | active: 0.0655 µM
Nc1nc2[nH]cc(CCc3ccc(C(=O)N[C@@H](CCC(=O)O)C(=O)O)cc3)c2c(=O)[nH]1 [PEMETREXED] | inactive: > 100 µM
C1CCNCC1.S=C(S)N1CCCCC1 | inactive: 113 µM
CCOc1ncn(-c2ccc(NC(=S)Nc3ncccn3)cc2)n1 | inactive: > 100 µM
O=C1C(=O)C2(CC1S(=O)(=O)c1ccccc1)c1ccccc1-c1ccccc12 (configuration not stated) | inactive: 23 µM
CC(=O)C(=N\Nc1ccc(Cl)cc1)/C(C)=N/c1ccc(C)cc1 | inactive: 28.4 µM
O=C1C=C(OCCCl)C(=O)c2c(O)ccc(O)c21 | inactive: 1.73 µM
COC(=O)C1Cc2c([nH]c3ccccc23)C=N1 (configuration not stated) | inactive: 79.4 µM
C=CC1C2=C(C(=O)NCC2)C2OC(O)C3=C(CCNC3=O)C2C1C (configuration not stated) | inactive: > 100 µM
Cc1ccc(S(=O)(=O)c2ccsc2NC(=O)c2ccccc2)cc1 | inactive: > 100 µM

Compound | GI50
CCCCNC(=S)Nc1nc(C(=O)NNC(=S)NC2CCCCC2)cs1 | inactive: > 100 µM
O=S(=O)(C1=CC(S(=O)(=O)c2ccccc2)COC1)c1ccccc1 (configuration not stated) | inactive: > 100 µM
C/C(=N\NC(=S)N1CCCCCC1)c1ccccn1 | active: 0.0024 µM
CN1CNc2nc(N)n(C)c(=O)c2C1 | inactive: > 10 µM
COC(=O)[C@]1(c2cc3ccccc3[nH]2)CC2CN(C(=O)OCc3ccccc3)C1CC2=O (some centres not stated) | inactive: 20.6 µM
Cc1cn([C@@H]2C[C@@H]2CO)c(=O)[nH]c1=O | inactive: > 100 µM
CC(=O)OCC(C)(COC(C)=O)N1C(=O)C2C3c4ccccc4C(c4ccccc43)C2C1=O (configuration not stated) | inactive: > 100 µM
COc1cc(OC)cc(C(=O)CC(=O)c2cc(OC)cc(OC)c2)c1 | inactive: > 100 µM
COC(=O)c1cnc(Cl)c([N+](=O)[O-])c1 | inactive: 15.2 µM
COC(=O)c1cccc2c3ccccc3c3ccccc3c12 | inactive: 35.6 µM
C=C1CC(CN2CCC(=O)NC2=O)(c2ccccc2)OC1=O (configuration not stated) | inactive: 16.4 µM
CC(C)CCC[C@@H](C)C1CCC2[C@@H]3CC=C4C[C@@H](OC(=O)CCC(=O)NCC[N+](C)(C)CCCS(=O)(=O)[O-])CC[C@]4(C)C3CC[C@@]21C (some centres not stated) | inactive: 22.3 µM
CC(=O)OCCCC(NC(=O)OC(C)(C)C)C(=O)NC(CCCOC(C)=O)C(=O)NC(Cc1ccc([N+](=O)[O-])cc1)C(=O)NCC(=O)OCc1ccccc1 (configuration not stated) | inactive: 20.3 µM
O=P(O)(O)c1ccccc1Oc1ccccc1 | inactive: > 100 µM
ClC[Si]12OCCN(CCO1)CCO2 | inactive: > 100 µM
NC(=S)N/N=C1\C(=O)N(CCc2ccccc2)C(=O)C1C(=O)NCCc1ccccc1 (configuration not stated) | inactive: > 100 µM
Clc1ccc(-c2ccc(-c3nnc(COc4ccc(OCc5nnc(-c6ccc(-c7ccc(Cl)cc7Cl)o6)o5)c(Cl)c4)o3)o2)c(Cl)c1 | inactive: > 100 µM
Cc1cc2c(cc1C)NC1=C(O)C(c3c[nH]c4ccc(COc5ccccc5)cc34)OC1=N2 (configuration not stated) | inactive: > 100 µM
O=C(O)CCCc1ccc2ccccc2c1 | inactive: > 100 µM
COc1cc2c(cc1[N+](=O)[O-])C(=O)C(Br)(Br)CCC2 | inactive: 15.7 µM
CCC1=NC(C(F)(F)F)(C(F)(F)F)N=C(N2CCOCC2)O1 | inactive: > 100 µM
COC(=O)CNS(=O)(=O)c1ccc(-c2c3nc(c(-c4ccc(S(=O)(=O)NCC(=O)OC)cc4)c4ccc([nH]4)c(-c4ccc(S(=O)(=O)NCC(=O)OC)cc4)c4nc(c(-c5ccc(S(=O)(=O)NCC(=O)OC)cc5)c5ccc2[nH]5)C=C4)C=C3)cc1 | inactive: > 100 µM

Compound | GI50
CC1=CC2(C)C=C[C@@H]1C(=O)[C@@]1(C)CC[C@@](O)(C(C)C)[C@H]1CC2 | inactive: 20.9 µM
O=C1CC(c2ccccc2)=Nc2ccccc2N1 | inactive: > 100 µM
O=C1O/C(=C(/Br)c2ccc(Cl)c(Cl)c2)c2ccccc21 | inactive: > 10 µM
CC(C)(C)[Si](C)(C)OCC1OC(n2ccc(=O)[nH]c2=O)C(O[Si](C)(C)C(C)(C)C)/C1=C/C#N (configuration not stated) | inactive: 24.5 µM
Cn1c(=O)n(C2(C)CSC2)c2ccccc21 | inactive: > 100 µM
CCN(CC)C(=O)c1cc(OC(C)C)ccc1-c1c(C)cc(OC(C)C)c(OC)c1OC | inactive: > 100 µM
O=c1oc2c3ccc4ccccc4c3n(Cc3nc4ccccc4[nH]3)c2c2ccccc12 | inactive: 11.8 µM
COC(=O)C1=C(OC(=O)/C(=C/c2ccc(Cl)cc2)c2ccc(Cl)cc2)C(C(=O)OC)[C@@]2(O)[C@@H](C(=O)OC)[C@H](C)C[C@@H]1[C@@H]2C(=O)OC (some centres not stated) | inactive: 42.3 µM
N/C(=N\O)N/N=C\c1c(O)cc(O)cc1O | inactive: > 100 µM
CN(C)CCCNC(=O)c1cc(NS(=O)(=O)c2ccc3c(c2)C(=O)c2ccccc2C3=O)cn1C | inactive: 21.6 µM
CCCC[C@H]1C(=O)O[C@H](C)[C@H](NC(=O)c2cccc(NC=O)c2O)C(=O)O[C@@H](C)[C@@H]1OC(=O)CC(C)C [ANTIMYCIN A3] | inactive: 11.7 µM
O=C(O)/C(Cl)=C(\Cl)C(=O)Nc1ccc(Cl)c(Cl)c1Cl | inactive: 20.8 µM
COC(=O)c1cccc(N[C@@H]2c3cc4c(cc3C(c3cc(OC)c(O)c(OC)c3)[C@H]3C(=O)OCC32)OCO4)c1 (some centres not stated) | inactive: 9.2 µM
Clc1ccc(/N=N/c2nc3ccccc3nc2/N=N/c2ccc(Cl)cc2Cl)c(Cl)c1 | inactive: > 100 µM
CCOC(=O)C(CC(C)C)NC(=O)C(Cc1ccc(N(CCCl)CCCl)cc1)NC(C)=O (configuration not stated) | inactive: 21 µM
Cc1cccc(NC(=O)c2cc3cc(/N=N/c4ccccc4Cl)ccc3oc2=O)c1 | inactive: 40.6 µM
O=C(O)c1ccccc1-c1ccccc1C(=O)Nc1ccc2c(c1)Cc1ccccc1-2 | inactive: 32.7 µM
C[C@@H]1C[C@H]2CC[C@H](O2)[C@H](C)C(=O)O[C@@H](C)C[C@@H]2CC[C@@H](O2)[C@@H](C)C(=O)O[C@H](C)C[C@H]2CC[C@H](O2)[C@H](C)C(=O)O[C@@H](C)C[C@@H]2CC[C@@H](O2)[C@@H](C)C(=O)O1 | inactive: 1.18 µM
c1ccc(COC2C3COC(O3)C(OCc3ccccc3)C2OCc2ccccc2)cc1 (configuration not stated) | inactive: > 100 µM
COc1ccc(/C=N/n2c(Cc3ccccc3)n[nH]c2=O)c(OC)c1 | inactive: > 60.5 µM
N=C(N)c1ccc(/N=N/c2c(O)ccc3cc(O)ccc23)cc1 | inactive: > 100 µM
